# Reference: the supplement of paper PMC3334620
# In all, about 33,000 sequences were measured (“E-score (-0.5 to 0.5)”: median about -0.054, highest 2% from about 0.35 on). Some of the results follow.
# Molecular target: T1, Stb5 (UniProt P38699)
# T1 sequence: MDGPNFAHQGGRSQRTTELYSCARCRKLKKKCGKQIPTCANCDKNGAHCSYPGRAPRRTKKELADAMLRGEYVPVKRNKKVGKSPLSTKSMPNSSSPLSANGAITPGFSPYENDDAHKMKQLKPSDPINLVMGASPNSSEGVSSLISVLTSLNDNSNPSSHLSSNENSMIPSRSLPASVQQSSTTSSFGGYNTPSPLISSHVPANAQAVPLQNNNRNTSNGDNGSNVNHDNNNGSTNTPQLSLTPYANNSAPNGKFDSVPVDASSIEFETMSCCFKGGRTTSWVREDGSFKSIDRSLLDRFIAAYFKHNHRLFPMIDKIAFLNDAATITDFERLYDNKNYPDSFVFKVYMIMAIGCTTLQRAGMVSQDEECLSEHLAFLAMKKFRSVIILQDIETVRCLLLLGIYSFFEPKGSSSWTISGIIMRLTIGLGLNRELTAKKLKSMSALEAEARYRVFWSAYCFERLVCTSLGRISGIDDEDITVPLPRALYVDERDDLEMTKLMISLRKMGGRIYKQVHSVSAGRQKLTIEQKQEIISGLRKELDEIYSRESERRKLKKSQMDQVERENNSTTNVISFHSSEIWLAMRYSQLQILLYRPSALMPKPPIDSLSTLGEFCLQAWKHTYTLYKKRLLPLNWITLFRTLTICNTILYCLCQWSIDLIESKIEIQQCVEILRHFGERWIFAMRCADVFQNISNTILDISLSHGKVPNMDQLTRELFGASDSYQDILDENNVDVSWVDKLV
# Test: PBM E-score (8-mer binding enrichment) (E-score (-0.5 to 0.5)); higher = stronger / more preferred TF binding; most listed sequences are background and not binding sites
# Settings: protein concentration: 200 nM; construct: GST-full length
# Summary of the method: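 Yeast transcription factors, full-length or as DNA-binding domains, were expressed with a GST tag using PURExpress in vitro transcription/translation. At about 100-200 nM they were applied to universal all-10-mer Agilent arrays, double-stranded by primer extension on fresh or once-stripped slides. Fluorescent anti-GST detected bound protein, and masliner normalised the scans. E-scores for ungapped eight-base words, pooled with reverse complements, came from the Universal PBM Analysis Suite.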
row,Sequence,PBM E-score
1,CAATAAGC,0.153
2,GGCATACC,0.0408
3,ATATGAGC,-0.113
4,CACCCATG,-0.068
5,CACTACTA,-0.117
6,ATTCGCAA,-0.192
7,AAAGGCAA,-0.151
8,GGGGTCTA,0.165
9,GTATCCCA,-0.0728
10,GCATAGCA,-0.0674
11,AGGTGCAC,-0.177
12,AAGTTTAT,0.134
13,GACCTTGC,-0.0867
14,CCGCAAGA,0.11
15,AGATCATA,0.0528
16,ACAGAAAA,-0.0129
17,AAACTCCT,0.0448
18,AATATAGA,0.0314
19,TCGATTCA,-0.0647
20,CCTCATCA,-0.276
21,ATCTCTCG,-0.00656
22,GTTACAGA,-0.242

row,Sequence,PBM E-score
1,ATACGAAT,-0.191
2,CCCACGCC,-0.111
3,ACCGTTAC,0.175
4,GACGCCTC,-0.322
5,GGGAATTA,0.164
6,CACTCTAA,-0.149
7,CATTATAG,0.111
8,GCAGTTAC,0.116
9,CGAATGAC,-0.0769
10,GTAAAGAA,0.0288
11,CATTTAAG,-0.28
12,CGTAGCTC,0.0462
13,AAGAAGGC,-0.14
14,GGCAGGAC,0.0272
15,GAACGACA,-0.144
16,GCCTCCCA,0.0019
17,CATAATGC,0.208
18,CACTGTAC,-0.252
19,ACGTTGCT,-0.127
20,AGTTTTTG,-0.201
21,GATTTACA,0.0286
22,GCACCGAC,0.45

row,Sequence,PBM E-score
1,CACTACGA,-0.07
2,GAAGCTGA,-0.126
3,AGATAACG,0.201
4,GGATTAGA,-0.0685
5,GTCATAAC,0.0967
6,CCGGTTTA,0.216
7,AGGCCAGA,-0.148
8,CATTTAAA,0.176
9,CCACCGGG,0.26
10,GAATCATA,-0.18
11,AAAAGTGC,0.101
12,CATCACTA,-0.202
13,CCCCGACG,0.449
14,CATAGCAC,0.163
15,AACATGTG,-0.0988
16,CGGTGACA,0.42
17,CTAAACAG,-0.102
18,AACCCGCG,0.231
19,CTAAAGAG,-0.105
20,CTAGACGC,-0.0118
21,CGTTACCA,-0.112
22,CTTATTTC,0.0536

row,Sequence,PBM E-score
1,ATTACTTA,-0.0191
2,CCGTACCA,0.171
3,CAAAAGGG,-0.205
4,TCTGCTCA,-0.183
5,CGCCTTAC,0.0363
6,GAAAAGAC,0.148
7,GACAAATC,-0.0429
8,CTAAGACA,0.0369
9,CCGGTTTC,0.161
10,GAAAAAAA,0.0586
11,AGGCCCTG,-0.111
12,CGCGCTGA,0.173
13,AGCAGTCC,-0.136
14,GACATTCA,0.0858
15,TTACTGAA,-0.0992
16,CCGTATGA,0.222
17,GTACACGA,-0.148
18,ATAGATAC,-0.144
19,CCGAATTC,0.2
20,GGTAATTA,0.185
